IC50 is the fitted dose that halves viability relative to control wells, and lower means more sensitive; fits outside the tested doses are given as limits. AUC, from the same fit, is the share of area under the viability curve across the 256-fold dose range; values near 1 show little effect. For part of these data: An inferred top dose is not printed in the source and was worked back from the curve model. For part of these data: Drugs with an entry number were screened twice under separate entries, and the two screens often disagree.
What was measured:
Assay in all cases: Viability of human cancer cell lines after 72 h of drug (GDSC screen)
[1] = compound: Cn1cnc2c(F)c(Nc3ccc(Br)cc3Cl)c(C(=O)NOCCO)cc21 [AZD6244]; conditions: screen: GDSC drug entry 1062
Procedure: (§1)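 Human cancer cell lines in 384-well plates, medium with 10% serum, drug for 72 h over a 256-fold dose range (nine 2-fold or five 4-fold steps up to the top dose). Adherent lines were fixed and stained with the nucleic acid dye Syto60, suspension lines read with resazurin; signal relative to control wells, capped at 0 and 100%. One two-parameter sigmoid per drug and line, fitted in a mixed model over all curves with the slope shared within a line.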

[2] = compound: COc1cc2c(Nc3ccc(NC(=O)c4ccccc4)cc3)ncnc2cc1OCCCN1CCOCC1 [ZM-447439]; conditions: top dose inferred
Procedure: as §1

[3] = compound: CC(=O)c1c(C)c2cnc(Nc3ccc(N4CCNCC4)cn3)nc2n(C2CCCC2)c1=O [PD-0332991]
Procedure: as §1

| Cell Line | AUC [1] | IC50 [1] [µM] | AUC [2] | IC50 [2] [µM] | AUC [3] | IC50 [3] [µM] |
| --- | --- | --- | --- | --- | --- | --- |
| HCC38 (breast, adherent, top dose 4 µM) | 0.985 | > 4 | 0.965 | > 4 | 0.968 | > 4 |
| HCC202 (breast, adherent, top dose 4 µM) | 0.98 | > 4 | 0.981 | > 4 | 0.981 | > 4 |
| HCC1143 (breast, adherent, top dose 4 µM) | 0.969 | > 4 | 0.894 | > 4 | 0.748 | 1.76 |
| HCC1187 (breast, suspension, top dose 4 µM) | 0.961 | > 4 | 0.826 | 2.26 | 0.977 | > 4 |
| HCC1395 (breast, adherent, top dose 4 µM) | 0.973 | > 4 | 0.946 | > 4 | 0.908 | > 4 |
| HCC1419 (breast, adherent, top dose 4 µM) | 0.921 | > 4 | 0.95 | > 4 | 0.973 | > 4 |
| HCC1428 (breast, adherent, top dose 4 µM) | 0.98 | > 4 | 0.986 | > 4 | 0.918 | > 4 |
| HCC1569 (breast, adherent, top dose 4 µM) | 0.968 | > 4 | 0.945 | > 4 | 0.971 | > 4 |
| HCC1937 (breast, adherent, top dose 4 µM) | 0.981 | > 4 | 0.981 | > 4 | 0.97 | > 4 |
| HCC1954 (breast, adherent, top dose 4 µM) | 0.901 | > 4 | 0.932 | > 4 | 0.943 | > 4 |
| HCC2157 (breast, suspension, top dose 4 µM) | 0.975 | > 4 | 0.832 | 2.74 | 0.986 | > 4 |
| HCC2218 (breast, suspension, top dose 4 µM) | 0.979 | > 4 | 0.982 | > 4 | 0.983 | > 4 |
| HCC-15 (lung squamous cell carcinoma, adherent, top dose 4 µM) | 0.967 | > 4 | 0.874 | > 4 | 0.938 | > 4 |
| HCC-44 (lung adenocarcinoma, adherent, top dose 2 µM) | 0.794 | 0.897 | 0.907 | > 2 | 0.981 | > 2 |
| HCC-56 (large intestine, adherent, top dose 4 µM) | 0.524 | 0.292 | 0.918 | > 4 | 0.968 | > 4 |
| HCC-78 (lung adenocarcinoma, adherent, top dose 4 µM) | 0.884 | > 4 | 0.904 | > 4 | 0.781 | 1.97 |
| HCC-827 (lung adenocarcinoma, adherent, top dose 4 µM) | 0.906 | > 4 | 0.931 | > 4 | 0.853 | 3.91 |
| HCT-15 (large intestine, adherent, top dose 4 µM) | 0.987 | > 4 | 0.961 | > 4 | 0.854 | 3.47 |
| HDLM-2 (Hodgkin lymphoma, suspension, top dose 4 µM) | 0.987 | > 4 | 0.857 | 3.17 | 0.912 | > 4 |
| HDQ-P1 (breast, adherent, top dose 4 µM) | 0.85 | 3.96 | 0.954 | > 4 | 0.983 | > 4 |
| HEC-1 (endometrium, adherent, top dose 4 µM) | 0.982 | > 4 | 0.896 | > 4 | 0.925 | > 4 |
| HGC-27 (stomach, adherent, top dose 4 µM) | 0.975 | > 4 | 0.817 | 1.82 | 0.621 | 0.509 |

| Cell Line | AUC [1] | IC50 [1] [µM] | AUC [2] | IC50 [2] [µM] | AUC [3] | IC50 [3] [µM] |
| --- | --- | --- | --- | --- | --- | --- |
| HH (T-cell leukaemia, suspension, top dose 4 µM) | 0.95 | > 4 | 0.916 | > 4 | 0.676 | 0.916 |
| HL-60 (acute myeloid leukaemia, suspension, top dose 4 µM) | 0.898 | > 4 | 0.836 | 2.28 | 0.772 | 1.39 |
| HLE (liver, adherent, top dose 2 µM) | 0.953 | > 2 | 0.915 | > 2 | 0.929 | > 2 |
| HN (head and neck, adherent, top dose 4 µM) | 0.663 | 0.688 | 0.798 | 1.77 | 0.741 | 1.16 |
| HO-1-u-1 (head and neck, adherent, top dose 4 µM) | 0.988 | > 4 | 0.98 | > 4 | 0.945 | > 4 |
| HOP-62 (lung adenocarcinoma, adherent, top dose 4 µM) | 0.982 | > 4 | 0.959 | > 4 | 0.88 | > 4 |
| HOS (osteosarcoma, adherent, top dose 4 µM) | 0.959 | > 4 | 0.902 | 3.71 | 0.749 | 1.12 |
| HSC-2 (head and neck, adherent, top dose 4 µM) | 0.947 | > 4 | 0.967 | > 4 | 0.909 | > 4 |
| HSC-39 (stomach, suspension, top dose 4 µM) | 0.985 | > 4 | 0.811 | 1.77 | 0.85 | 2.42 |
| HT (B-cell lymphoma, suspension, top dose 4 µM) | 0.984 | > 4 | 0.948 | > 4 | 0.973 | > 4 |
| HT-3 (cervix, adherent, top dose 4 µM) | 0.987 | > 4 | 0.984 | > 4 | 0.987 | > 4 |
| HT-29 (large intestine, adherent, top dose 4 µM) | 0.982 | > 4 | 0.944 | > 4 | 0.742 | 1.23 |
| HT-115 (large intestine, adherent, top dose 4 µM) | 0.991 | > 4 | 0.944 | > 4 | 0.946 | > 4 |
| HT-144 (melanoma, adherent, top dose 4 µM) | 0.389 | 0.119 | 0.918 | > 4 | 0.836 | 3.1 |
| HT-1080 (fibrosarcoma, adherent, top dose 4 µM) | 0.788 | 1.55 | 0.876 | 3.26 | 0.753 | 1.21 |
| HT-1197 (bladder, adherent, top dose 4 µM) | 0.956 | > 4 | 0.985 | > 4 | 0.98 | > 4 |
| HT-1376 (bladder, adherent, top dose 4 µM) | 0.915 | > 4 | 0.966 | > 4 | 0.97 | > 4 |
| Hey (ovary, adherent, top dose 4 µM) | 0.716 | 0.979 | 0.857 | 2.95 | 0.585 | 0.42 |
| Hs633T (fibrosarcoma, adherent, top dose 4 µM) | 0.648 | 0.59 | 0.849 | 2.21 | 0.726 | 0.948 |
| Hs683 (glioma, adherent, top dose 4 µM) | 0.98 | > 4 | 0.929 | > 4 | 0.887 | > 4 |
| Hs746T (stomach, adherent, top dose 4 µM) | 0.872 | > 4 | 0.971 | > 4 | 0.802 | 2.83 |
| Hs766T (pancreas, adherent, top dose 4 µM) | 0.942 | > 4 | 0.979 | > 4 | 0.855 | > 4 |

| Cell Line | AUC [1] | IC50 [1] [µM] | AUC [2] | IC50 [2] [µM] | AUC [3] | IC50 [3] [µM] |
| --- | --- | --- | --- | --- | --- | --- |
| Hs939-T (melanoma, adherent, top dose 4 µM) | 0.965 | > 4 | 0.962 | > 4 | 0.879 | > 4 |
| HuCCT1 (biliary tract, adherent, top dose 4 µM) | 0.718 | 1.12 | 0.928 | > 4 | 0.88 | > 4 |
| HuH-7 (liver, adherent, top dose 4 µM) | 0.941 | > 4 | 0.956 | > 4 | 0.865 | 3.53 |
| HuO9 (osteosarcoma, adherent, top dose 4 µM) | 0.912 | > 4 | 0.949 | > 4 | 0.939 | > 4 |
| HuO-3N1 (osteosarcoma, adherent, top dose 4 µM) | 0.978 | > 4 | 0.961 | > 4 | 0.983 | > 4 |
| HuP-T3 (pancreas, adherent, top dose 4 µM) | 0.963 | > 4 | 0.915 | > 4 | 0.796 | 2.37 |
| HuP-T4 (pancreas, adherent, top dose 4 µM) | 0.962 | > 4 | 0.845 | 3.16 | 0.81 | 2.26 |
| IGR-1 (melanoma, adherent, top dose 4 µM) | 0.897 | 3.89 | 0.978 | > 4 | 0.914 | > 4 |
| IGROV-1 (ovary, adherent, top dose 4 µM) | 0.873 | > 4 | 0.918 | > 4 | 0.792 | 2.86 |
| IHH-4 (thyroid, semi-adherent, top dose 4 µM) | 0.569 | 0.371 | 0.778 | 1.3 | 0.736 | 0.997 |
| IM-9 (myeloma, suspension, top dose 4 µM) | 0.991 | > 4 | 0.974 | > 4 | 0.992 | > 4 |
| IMR-5 (neuroblastoma, adherent, top dose 4 µM) | 0.976 | > 4 | 0.912 | > 4 | 0.992 | > 4 |
| IPC-298 (melanoma, adherent, top dose 4 µM) | 0.371 | 0.111 | 0.98 | > 4 | 0.894 | > 4 |
| IST-MEL1 (melanoma, adherent, top dose 4 µM) | 0.868 | > 4 | 0.921 | > 4 | 0.817 | 2.81 |
| IST-SL1 (small cell lung carcinoma, semi-adherent, top dose 4 µM) | 0.981 | > 4 | 0.775 | 1.63 | 0.986 | > 4 |
| IST-SL2 (small cell lung carcinoma, suspension, top dose 4 µM) | 0.978 | > 4 | 0.942 | > 4 | 0.988 | > 4 |
| JAR (urogenital system, adherent, top dose 4 µM) | 0.97 | > 4 | 0.902 | > 4 | 0.987 | > 4 |
| JEG-3 (urogenital system, adherent, top dose 4 µM) | 0.979 | > 4 | 0.914 | > 4 | 0.972 | > 4 |
| JEKO-1 (B-cell lymphoma, suspension, top dose 4 µM) | 0.941 | > 4 | 0.741 | 1.18 | 0.738 | 1.15 |
| JHH-1 (liver, adherent, top dose 4 µM) | 0.532 | 0.308 | 0.935 | > 4 | 0.985 | > 4 |
| JHH-2 (liver, adherent, top dose 4 µM) | 0.874 | > 4 | 0.983 | > 4 | 0.939 | > 4 |

Source: the supplement of paper PMC4967469
